# Source: PubChem BioAssay AID1347073 (National Center for Advancing Translational Sciences (NCATS), 2019)
# The campaign covered roughly 45,000 compounds. About 200 (0.44%) were called active. Another 7% or so got no clear call; they are omitted. Calls follow the shape of the dose curve; as a rule, active = well fitted activation curve with a large enough effect; inconclusive = small, poorly fitted or top-dose-only effect; inactive = no such curve, though single readings can be large or run the other way. The list shows a part of the results.
# Experiment: qHTS of TDP-43 Inhibitors: NCGC Sytravon Library Screen; also: 0% is about no effect; nearly all actives have a fitted effect of over 55% in size
# Conditions: yeast TDP-43 toxicity rescue, BacTiter-Glo growth, 24 h; series mostly up to 46.1 µM; growth rescue (activation): at the top concentration
# How it was run: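 TDP-43-expressing yeast, pregrown in raffinose, seeded at OD600 0.02 in galactose medium with compound for 24 hr at 30 deg C. Growth read by BacTiter-Glo luminescence, so rescue of toxicity appears as activation.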
row,Structure (SMILES),growth rescue (activation)
1,CCN(C(=O)COC(=O)c1cccn1C)C1CCS(=O)(=O)C1 (stereo not drawn),inactive: -2.53%
2,NS(=O)(=O)c1ccc2nc(NC(=O)c3ccc(Br)o3)sc2c1,inactive: 4.03%
3,COc1ccc2c(c1)nc(N)n2Cc1ccccc1,inactive: 13.4%
4,COc1ccccc1N(C)S(=O)(=O)c1ccc(Cl)c(C(=O)OCc2c(C)noc2C)c1,inactive: 10.7%
5,Cc1nnc(C)c2c(C)n(-c3ccc(Cl)c(N)c3)c(C)c12,inactive: -0.461%
6,NC(=O)C1CCN(c2oc(-c3cccs3)nc2S(=O)(=O)c2ccc(Cl)cc2)CC1,inactive: 22.8%
7,CCc1ccc(C(=O)NCC2(c3ccccc3)CCOCC2)o1,inactive: -4.66%
8,CC12CCC(C(=O)NCc3cccnc3)(OC1=O)C2(C)C (stereo not drawn),inactive: 15.3%
9,CCc1ccc(NC(=S)N(CCC(C)C)C2CCN(C(C)=O)CC2)cc1,inactive: 32.7%
10,O=C1N(Cc2cccc(Cl)c2)C[C@@H]2C[C@@H](c3cccc4ncccc34)N3CCC[C@@]123,inactive: 10.2%
11,C=CCN(CC(=O)NC1CCCC1)C(=O)C(=O)Nc1ccc2c(c1)OCCO2,inactive: -10.8%
12,CCCn1c(SCC(=O)Nc2cccc(C(=O)OC)c2)nnc1-c1cccnc1,inactive: -1.01%
13,CCOCCCN1C(=O)c2ccccc2CC1(C)C(=O)NC1CCCCC1 (stereo not drawn),inactive: 13.6%
14,CCCCCC(=O)NNC(=O)c1ccc(F)cc1,inactive: 4.64%
15,O=C(COc1cccnc1[N+](=O)[O-])Nc1cccc(S(=O)(=O)N2CCCCC2)c1,inactive: 0.588%
16,CCOc1ccc(C(=O)NC(=S)Nc2ccccc2N2CCCCC2)cc1[N+](=O)[O-],inactive: 22.2%
17,Cc1nc(C)c(NC(=O)OC(C)C)cc1NC(=O)OC(C)C,inactive: 5.82%
18,NC(=O)COC(=O)c1ccccc1SCC(=O)NC1CCCCCC1,inactive: 3.46%
19,CCOCCCNC(=O)Cn1nc(Cc2ccncc2)c2ccccc2c1=O,inactive: 8.41%
20,COCC1CCN(Cc2nc(-c3ccc(OC)cc3)no2)CC1,inactive: 8.78%
21,Cc1nn(-c2ccccc2)c2nc(Cl)c(C(=O)O)cc12,inactive: 13%
22,O=C(CNS(=O)(=O)c1ccccc1)OCC(=O)c1ccc(F)cc1,inactive: -23.7%
23,CNCc1c(OCc2ccc(F)cc2)ccc2ccccc12,inactive: 1.56%

row,Structure (SMILES),growth rescue (activation)
1,COc1ccc(Cl)cc1NC(=O)C1CCN(C(=O)C2CC(=O)N(c3ccc(C)cc3)C2)CC1 (stereo not drawn),inactive: 6.92%
2,Cc1cc(NC(=O)Cc2ccccc2)no1,inactive: -3.51%
3,CCCCOC(=O)CSC(=S)N(C)Cc1cccs1,inactive: 27.4%
4,Cc1nnc(SCC(=O)NCC2CCCO2)n1Cc1ccccc1 (stereo not drawn),inactive: -1.24%
5,O=C(NNC(=O)c1n[nH]c(=O)c2ccccc12)c1ccc(Br)cc1,inactive: 17.6%
6,COc1ccccc1CNc1nc(Nc2ccccc2OC)c2sccc2n1,inactive: 1.3%
7,COc1ccccc1CC(=O)Nc1ccc2c(c1)CCC2,inactive: 20.7%
8,Cc1cccc(C(=O)N[C@H](C(=O)NCCc2ccc(Cl)cc2)C(C)C)c1,inactive: 16.6%
9,Cn1c(Nc2ccc(F)cc2)nc2ccccc21,inactive: 3.32%
10,CCOc1ccc(NC(=O)C2CC(=O)N(c3ccccc3F)C2)cc1 (stereo not drawn),inactive: -11.1%
11,Nc1cccc2c1C(=O)N(C(=O)c1ccco1)C2=O,inactive: 1.44%
12,Cc1cccc(-n2c(O)c(C=Nc3c(C)n(C)n(-c4ccccc4)c3=O)c3ccccc3c2=O)n1,inactive: -0.952%
13,O=C(Nc1ccc(F)cc1)Nc1cc(OCC(F)(F)F)cc(OCC(F)(F)F)c1,inactive: 8.54%
14,O=C(Nc1sc2c(c1C(=O)O)CCCC2)c1ccc(Cl)cc1,inactive: -22.4%
15,CN1/C(=C/C(=O)COC(=O)C2COc3ccccc3O2)C(C)(C)c2ccccc21 (stereo not drawn),inactive: 4.56%
16,CC(C)CN(C(=O)c1cccc(Cl)c1)c1c(N)n(CC(C)C)c(=O)[nH]c1=O,inactive: 2.66%
17,COC(=O)c1cc(C(=O)Nc2nnc(CC(C)(C)C)s2)cc([N+](=O)[O-])c1,inactive: 7.8%
18,O=C(COc1ccc(-c2nnco2)cc1)Nc1cc([N+](=O)[O-])ccc1F,inactive: 18.7%
19,Cc1cc(O)ccc1-c1cc(C(=O)NCc2cc(C(F)(F)F)cc(C(F)(F)F)c2)[nH]n1,inactive: 13.1%
20,O=C(Cn1nc(C(=O)O)c2ccccc2c1=O)Nc1ccc(Cl)c(S(=O)(=O)N2CCOCC2)c1,inactive: 1.76%
21,CC1CN(CCCCOc2ccc(Cl)c3ccccc23)CC(C)O1 (stereo not drawn),inactive: 13.5%
22,CC(C)c1nnc(SCC(=O)NC2CCCCC2)n1C,inactive: 7.24%
23,O=C(c1ccc(=O)[nH]c1)N(Cc1cccs1)C1(C(=O)NC2CCCC2)CCCCC1,inactive: 12.2%

row,Structure (SMILES),growth rescue (activation)
1,O=C(c1cncc(Br)c1)N1CCN(S(=O)(=O)c2ccccc2)CC1,inactive: 23%
2,COc1ccc(NC(=O)CN2CCN(Cc3ccccc3)CC2)cc1,inactive: -2.26%
3,O=[N+]([O-])c1ccc(N2CCN(Cc3ccc([N+](=O)[O-])o3)CC2)cc1,inactive: 26.1%
4,CCOc1ccccc1/C=N/NC(=O)c1cccc(S(=O)(=O)N2CCOCC2)c1,inactive: -5.83%
5,Cc1ccc(C)c(N(CC(=O)NC2CCCC2)C(=O)CCC(=O)Nc2nccs2)c1,inactive: 9.57%
6,COc1ccccc1C1N=C(c2ccccc2C)NO1 (stereo not drawn),inactive: 16.2%
7,CCN(CC(=O)NCc1ccco1)S(=O)(=O)c1ccc(F)cc1,inactive: -6%
8,CCN(CC)C(=O)c1cccc(-c2csc(C(O)c3ccccc3)n2)c1 (stereo not drawn),inactive: 15%
9,O=C(NN=C1C2CC3CC(C2)CC1C3)c1cccc(S(=O)(=O)N2CCOCC2)c1,inactive: -5.76%
10,O=C1NC(c2ccc(Br)cc2)=N/C1=C/c1ccco1,inactive: 7.17%
11,COc1ccc(CSCC(=O)NN=C2CCN(C)CC2)cc1,inactive: 12.6%
12,CCOC(=O)Cc1cc(-c2ccc(F)cc2)nc2ccc3ccccc3c12,inactive: -9.37%
13,Cc1csc(=O)n1CC(=O)Nc1ccc(C(C)C)cc1,inactive: 16.3%
14,CCOc1ccccc1CNC(=O)c1ccc2c(c1)N(Cc1ccc(C)cc1)CCS2,inactive: 5.76%
15,CC(C)NC(=S)N/N=C/c1sc(N2CCCCC2)nc1-c1cccs1,inactive: 30.3%
16,Cc1ccc(C(=O)N/N=c2\sc3ccccc3n2C)cc1,inactive: 11.9%
17,CC12Cc3ccc4ccccc4c3C=C1C[N+](C)(C)C2 (stereo not drawn),inactive: -8.94%
18,O=C(CN1C(=O)CSc2ccc(S(=O)(=O)N3CCOCC3)cc21)NCCCN1CCc2ccccc2C1,inactive: -14.2%
19,CC(C)OCCCn1c(=NC(=O)c2cccs2)c(C#N)cc2c(=O)n3ccccc3nc21,inactive: 11%
20,Cc1cc(Cl)ccc1NC(=S)NCc1ccc(S(N)(=O)=O)cc1,inactive: -5.84%
21,CCOC(=O)C1CCN(c2cc(C)nc3ccc(OC)cc23)CC1,inactive: 1.97%
22,O=C(c1cccc(C(=O)N2CCN(c3ccccc3F)CC2)c1)N1CCN(c2ccccc2F)CC1,inactive: -22.3%
